Assay results from the supplement of paper PMC11417369.
± gives the standard deviation of the averaged measurements. Some of the results follow.

Test system: PfAP2-LT AP2 domain (GST-tagged)
Experiment: gcPBM binding intensity (ln(normalized median fluorescence intensity)); higher = stronger DNA binding
How it was run: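 DNA-binding domains from P. falciparum, fused to GST and produced in E. coli, were put on an Agilent 4 × 180k double-stranded probe array for 1 h in 1× PBS holding 1% milk, 0.2 mg/ml BSA, 0.5% salmon testes DNA and 0.03% Triton X-100. Probes were primer-extended, 36 bp long and drawn from intergenic genomic regions, with negative controls included. After Alexa488 anti-GST antibody detection and a 488 nm scan, binding intensity was set as the highest Masliner-normalised natural-log median intensity across replicate spots of either probe orientation.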

“TTTACACTTTCCAATAGTACATATTAGAATAATTCT [XGTACX_site7734]” and “TAATTTATGGAATATGTGCACTTGCTGATCACTTTT [GTGCAC_site9843]” are within error of each other in “gcPBM binding intensity (ln)” value: 8.47 ± 0.34 for the first, 8.93 ± 0.45 for the second.

“AATTTAATCCGTAATAAGAAAAGAAAAAAAAAAAGA [GTGCAC_negctrl_site129]” and “ATTAGCTACAAACAAAGGCTACCTATAGCAAGAGGG [GTGCAC_negctrl_site33]” are within error of each other in “gcPBM binding intensity (ln)” value: 8.49 ± 0.49 for the first, 9.12 ± 0.42 for the second.

“CCAATACATAGAAACTGTACATTATGCATTATACAC [XGTACX_site3531]” and “AATATCTAAATAAAGTGTACTTACCTTATTAATTAT [XGTACX_site2276]” are within error of each other in “gcPBM binding intensity (ln)” value: 8.92 ± 0.37 for the first, 8.6 ± 0.49 for the second.

“ATTTTCCTATTTAGTAGTACTTTTTTCTTTTTTTAA [XGTACX_site5260]” and TTATATTTCACAAATGTGCACAGATACATATATATA are within error of each other in “gcPBM binding intensity (ln)” value: 8.72 ± 0.55 for the first, 8.86 ± 0.46 for the second.

“TTATATGTATATATAGTGCAGAACAAAAGATTATAT [GTGCAC_site9599]” and “TTTTTGTTTCATAAATGTACAAAAACAAACATATTT [XGTACX_site5281]” are within error of each other in “gcPBM binding intensity (ln)” value: 8.82 ± 0.39 for the first, 8.34 ± 0.35 for the second.

“TTGAAGAAAAAAAAATGTACATAAAAAATATATATG [XGTACX_site428]” and “CTTATAAATAAAAGAAGTACATGTTAGTTCAAGTTA [XGTACX_site4183]” are within error of each other in “gcPBM binding intensity (ln)” value: 8.72 ± 0.48 for the first, 8.58 ± 0.41 for the second.

Compared with “TATATATATATATGTAGTACCTATAATATTAAATAC [XGTACX_site6118]”, “TTATTATCATCAAATCAAAAAATTCTTTTACCTGTT [CACACA_negctrl_site1348]” is lower in “gcPBM binding intensity (ln)” value: 9.255 ± 0.021 for the first, 8.4 ± 0.62 for the second.

“AAGAAAAGAAACAAAAAAAAAAAGAAATAAAAGGAA [TGCATGCA_negctrl_site171]” and “AATTTTTTTTTTTTTTTTTTTTATATATGTGTGTGT [XGTACX_negctrl_site129]” are within error of each other in “gcPBM binding intensity (ln)” value: 8.61 ± 0.62 for the first, 9.32 ± 0.42 for the second.

ATCAATAAATAAAATGTGCACATAATATATTAATAC and “TATGAATGGTTAAGTACACACATATTAATATAGGTA [CACACA_site7606]” are within error of each other in “gcPBM binding intensity (ln)” value: 9.03 ± 0.43 for the first, 9.02 ± 0.43 for the second.

“TATAAAAAATATATATATAATATTATATATATATAT [TGCATGCA_negctrl_site260]” and “ATTTTTTTTTTTTTTTGTACGAATAATATGTATGAA [XGTACX_site5318]” are within error of each other in “gcPBM binding intensity (ln)” value: 8.79 ± 0.4 for the first, 8.55 ± 0.45 for the second.

“AAAGGAGGGAATTTTTCTAGGTGTGGAGTGCTACTC [XGTACX_negctrl_site63]” and “ATTATTGTTTATTGATTTTTGTTAAAATAGGAAATT [GTGCAC_negctrl_site181]” are within error of each other in “gcPBM binding intensity (ln)” value: 8.9 ± 0.26 for the first, 8.38 ± 0.39 for the second.

“TTTCATCTCGTCATTTCTTATATAACTATTTTATAC [CACACA_negctrl_site813]” and “ATTATATTTATTAATATGTATATTTAATTATATTTA [XGTACX_negctrl_site376]” are within error of each other in “gcPBM binding intensity (ln)” value: 8.86 ± 0.5 for the first, 8.47 ± 0.42 for the second.

“AAGTGTAAAAGTTACACACACAAACTTGTCATTTTT [CACACA_site4614]” and “CAAATTTTTTATTAAACACACAAACATATATATATA [CACACA_site5122]” are within error of each other in “gcPBM binding intensity (ln)” value: 9.28 ± 0.33 for the first, 8.9 ± 0.36 for the second.

“TTCTTTATTATATGCACACGTACATAAAATATATAT [CACACA_site5157]” and “TTTATTTTTCCATATGCACACACACCGTATATATAA [CACACA_site8293]” are within error of each other in “gcPBM binding intensity (ln)” value: 8.94 ± 0.34 for the first, 9.54 ± 0.31 for the second.

“AAAATATAAATATATTTGAACATGGATCAAATGTAA [GTGCAC_negctrl_site626]” and “TATTCATTCTATAAAACACACAAATATTTTTGTATC [CACACA_site666]” are within error of each other in “gcPBM binding intensity (ln)” value: 8.64 ± 0.42 for the first, 8.7 ± 0.45 for the second.

Going from “ATACATACATACATACGTACATATGTATATATATAT [XGTACX_site8498]” to “ATGTTCTATAAATATGAACACACGACATATTATTTA [CACACA_site1799]”, the “gcPBM binding intensity (ln)” value falls from 9.23 ± 0.14 to 8.73 ± 0.35.

“TATATTTAATTACATGAACACACATTATATATTTTT [CACACA_site8969]” and “TGTAGTATCAATTTTTGTACATAACACATATGTATA [XGTACX_site613]” are within error of each other in “gcPBM binding intensity (ln)” value: 8.71 ± 0.47 for the first, 8.77 ± 0.43 for the second.

“ATATATATATATATATGTACATATTATTCTCATTGT [XGTACX_site6259]” and “ATATATATATATAAAGTGCAAAAATGAAAGTAAGAC [GTGCAC_site9850]” are within error of each other in “gcPBM binding intensity (ln)” value: 9.74 ± 0.014 for the first, 9.44 ± 0.38 for the second.

“ATAAAATATAAAAACGCACACAATTATAAGGGTGTA [CACACA_site177]” and “AAATTAAAATATAATACACACATAAAAAAAAAATCA [CACACA_site5918]” are within error of each other in “gcPBM binding intensity (ln)” value: 9.26 ± 0.38 for the first, 8.96 ± 0.41 for the second.

“GTATATGAATGTTCATGTACATAATAAAATATATAA [XGTACX_site250]” and “CAATTAAACAATTAAACATGCAAAATGATATAATAA [TGCATGCA_site240]” are within error of each other in “gcPBM binding intensity (ln)” value: 8.8 ± 0.4 for the first, 8.87 ± 0.49 for the second.

“AAACAATTTAGACATACACACAAAAATAATATTATA [CACACA_site384]” and “CACGAAAATTTGTAGAGTACATATATAATTAATATA [XGTACX_site3808]” are within error of each other in “gcPBM binding intensity (ln)” value: 9.12 ± 0.46 for the first, 8.65 ± 0.54 for the second.

First: ATTAAAAAAAAGCTCATCGAAATGTCTTATATAAAT [CACACA_negctrl_site912]
Second: ATATATATATATATATGTACATATTGTATTATTCAC [XGTACX_site6511]
The “gcPBM binding intensity (ln)” value of the first is lower: 8.69 ± 0.47 for the first, 9.705 ± 0.021 for the second.

“GAGCATTACACATATACACACATATATATAAACATA [CACACA_site5515]” and “TATAATAATATTTATTGTACGATTAGATTAATTCAT [XGTACX_site612]” are within error of each other in “gcPBM binding intensity (ln)” value: 9.26 ± 0.47 for the first, 8.53 ± 0.36 for the second.

Going from “CATATGATATTATTTTGTACTTATTACAAATATGAA [XGTACX_site7929]” to “ATATATATATATATTTGTACATAATATATATATGCA [XGTACX_site1795]”, the “gcPBM binding intensity (ln)” value rises from 8.46 ± 0.4 to 9.08 ± 0.2.

“AAAAAAAAATAGAAATGTACAAATTGTAATAATTCC [XGTACX_site6182]” and “AAAGAAAATTAAAAAGAACACACAAATATATATATA [CACACA_site9196]” are within error of each other in “gcPBM binding intensity (ln)” value: 8.86 ± 0.54 for the first, 9.15 ± 0.44 for the second.

“AATGAATCCTTATATACACACATTATTATAGTATAG [CACACA_site7454]” and “ATTTATATATATTTATGTACGTATTAATTTTTTTTT [XGTACX_site3877]” are the same in “gcPBM binding intensity (ln)” value: 8.93 ± 0.35 for the first, 8.93 ± 0.44 for the second.

“TCTTTATCCTTTCTCTTTTTATTAATTATAATATTC [TGCATGCA_negctrl_site584]” and “ATTATTTGTAATATAACACACACAAAAAAAGACTCG [CACACA_site8487]” are within error of each other in “gcPBM binding intensity (ln)” value: 8.74 ± 0.4 for the first, 9.28 ± 0.32 for the second.

“ATTAATTATGTATTTCAACAAAGAAGTGTTATATAT [GTGCAC_negctrl_site215]” and “ATTATACCGTATTTTGCATGTAGTATTTTCATTTTA [TGCATGCA_site1021]” are within error of each other in “gcPBM binding intensity (ln)” value: 8.55 ± 0.42 for the first, 9.07 ± 0.41 for the second.
